Measurements taken from paper PMC10726135.
This is one part of the list. At the low end of the ranking the order means little. The protein was read in a cell extract, so binding may be indirect.

molecular target: T1, HNF4alpha2 (COS-7 nuclear extract) (UniProt P41235); experiment: protein-binding microarray; details: COS-7 nuclear extract on double-stranded Agilent 4x180k PBM; binding buffer, salt, pH and temperature not given; high values mean tight binding; double strand, one strand shown; sequences stand for … in …GCCTAGGGAGATTAGAGTATCGGTCGA
T1 sequence: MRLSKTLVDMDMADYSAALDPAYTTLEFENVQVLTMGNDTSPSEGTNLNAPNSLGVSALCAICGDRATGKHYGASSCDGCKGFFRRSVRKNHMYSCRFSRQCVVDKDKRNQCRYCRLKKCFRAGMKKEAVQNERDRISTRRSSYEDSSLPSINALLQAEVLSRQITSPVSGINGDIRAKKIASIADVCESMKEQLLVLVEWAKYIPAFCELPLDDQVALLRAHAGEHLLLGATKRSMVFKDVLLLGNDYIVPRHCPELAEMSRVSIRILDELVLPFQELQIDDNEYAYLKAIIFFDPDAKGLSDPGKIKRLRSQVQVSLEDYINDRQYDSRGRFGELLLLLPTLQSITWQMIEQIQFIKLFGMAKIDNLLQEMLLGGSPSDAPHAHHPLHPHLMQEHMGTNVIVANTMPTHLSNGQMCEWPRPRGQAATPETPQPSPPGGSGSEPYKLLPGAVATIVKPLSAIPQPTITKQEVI

Sequence	binding signal (log2 normalized intensity)
TGCCTCTTTTCTGCTTTTGGAATTTGACCT	7.84
GGGCTGGAACACAAAGAAAGCCAAAGTTCA	2.41
GGATAGCGCGTGGCCCAAGGCCTCTGACAT	-0.993
GGTGGGAAAAGAAATGTAGTGACAGAAGGG	-1.09
CCCACACCTCCCCTTTGTTTAACTTACTAT	1.47
GTGACATACTGCCTTTCTAGAACCAGAATT	0.287
GTCGCTGTGATGTTTGTAAACTGTCATGGT	1.34
ACAGTGCCTATGTTGGAATGCCTAAAGTAG	-1.11
ATTGAGGCAGCCAGCGCAGGGGCTTCTGCT	-1.08
TGAGTAGTGTACGTTGTACCCCACAGGTAT	2.94
CAACCTTATCAGCAGGACACCAAACAGACC	-1.05
TGCAGAGTCACACACACCTGTGTCCCCCAG	2.97
TTAATTTCTAACCAATGCAGCTGGGAGATA	0.442
ATTAAGTGCAGTGATCAATCAGCAGCAAAG	-0.645
GTCTTTTCTCCCCCGATAAGGCTGCCTCCT	3.41
CCTCCAGCTACTCACTCTTCCCAAATAGGT	-0.0383
TACACTTGGAGAAAAAAAACCATTGCAAAT	-1.09
GTGTGACCTTTGCCTTCTTGACATCTCTCT	4.43
AAACTACTTTATATTCCTTTGTATCTGTAC	1.63
GTCAGACTTGCCACGGAATCCCAGTTCTGA	-1.13
AACCTTTGCTCCCTGGGAACCCCTCCAGCA	4.03
GTGGGCAAGTTATCTCGGGGTGGCATGTAT	1.14
AGTGATATGGAGAGGAAAGATGGGGATATA	-1.08
CAACCTCCACATTGCAACAATGTCCTTGAA	0.915
ATCTCTGGCAAAGCTATTCACTTTTTGGCC	0.468

Sequence	binding signal (log2 normalized intensity)
GTTATCTGCATTCCAGCTCAATCAAGGACT	-1.1
TTCTTATTCTGTCACCAAAGCAAGCAGATG	-1.13
TTGCACCAAGGAGACACCCCTGCAGAAGCG	-1.13
CGCAGACCCAGTCTTAGGGACTAAGCTTGT	-1.08
GAGTTATCTCTTGACTCTTCCCATCTAACT	-0.909
GGACATTGGCTGATAAAACAAATCTACAAA	-1.06
GCAATGTGGACTTTGTCCTGTGGGCTGTAA	7.35
ATTGTACAGGTTCCCTCATGATTTAGTAAG	0.637
AACCTAGACAGAAGCTTTCTGAGAAACTTC	-1.18
CAGGGTCTAGCAGTGCAGCGGGGTCAGAGA	1.8
GCATGGTGATGCTAGCTACTACATGATGCT	-1.1
TCCTTGTCTGTTTGGCCTTAGGTCCTTTGA	2.04
CCAACAGTTGAGAATTCCAGAGATGCCAGG	-1.15
TTGATGAGTCTTAGAGTCCAGACACAAAGA	-0.0998
ATTCCTCTATCTCCCTGTGACCTCCAACTA	2.58
ATTAACCTTTGTACCAAAATCACACTGGGA	3.16
GAATTCTTGACTTTGGACTTTCAAAAGTTA	4.21
CTTTGGTAGGCTGTATGGCTGCACAGGGCT	-0.75
ACCCAATACCCAGAGTGATCTTTGAAACAT	2.67
GTCTTAGGGACTAAGCTTGTAGACCAAGGA	0.172
TTGAGTCCTTCATGGCTACCCTTCATCTTC	0.919
TGTTTGCGCAAACTATCTAAACAGACTAGT	-0.653
CTGCCCTTTGGAACCTGCCCTCTGTCCCAT	4.15
ATACATTTGCCTGAACTTTAAACTGGTGTG	2.63
AGATACTGAATCTCCCAGTGCTTTGATCTT	1.07

Sequence	binding signal (log2 normalized intensity)
TGGGCTGGGACTCATTTATGGAGGAATTTG	0.0464
ACAAAGATCATAAATGCCTCCCCCTCTTTA	3.82
TGGGAACCCCAAGTTATCTTGAGACCTCAA	-0.202
TTTTGTACTTCCTTCACTCTGGGGCAATAA	1.89
AACATATACTTTATTAGGGTGAAAAATTAG	0.91
TAAGACAGACCCAAAGGTTAAGGAAACAAG	-1.01
CAGATCCAGTGGACTCTCTGTTTGATCAGC	1.51
AAGTCCATCTGTATTGCCTCCTTTGTAGGC	0.626
GGGGAGAGTTTAAGGTTGTACTTTGGAGTT	4.78
TGATAAACACTTGCCTACTTTATGGTAAAC	-1.08
TAATTAAGACCAAACTGCTGAAGATAAGAC	-1.09
CTGTTTGAGGGTAAAGATCTTGAGGCCCAC	-0.0312
TTCTGGGGACTTCGGTCTTTTTTCTGAAGA	1.62
GATGTTCGTTTGGATCGCTTGGCTCAGGCC	-0.819
GGAAGGAAAAGAGGAAAACCAGCTCAGTGG	-1.13
GGAGCAGAGCGATCAAAGGTCACAGAGACC	5.35
GAATGCCTAAAGTAGGTCTTAAATAATTAA	-0.924
CAAATACCTCCAAGAGGTTTTAGGCTATCA	-1.1
GCGAAGGCAGTGTGGCACCCTCCCTTCCCG	2.29
TCCAGGAGTATGTGTTTGCTTTACCTTAGT	1.66
TGAGTCTGGTGTTTCCCTGTTTGCTTCTGC	0.819
CTACCTCTTAGCTACCCTGTTTACAATGGA	1.06
CCCGGCAGCCCTGCTCCCCGCCTTGGCCTC	1.56
AGATTCTGCAAACCTATTAATATATTCATA	-1.02
TGTTTGACGACTGTCTGCCATGGGCCTGGC	-0.728

Sequence	binding signal (log2 normalized intensity)
GGTAAAGGTGAAGGCTGACCACGGGGGCCG	-1.02
CACCTTAGAGGGACGAAGGTCACTAATTGG	3.09
AAAGCGCAGCGCGGGGCTCAAAGGCGGCCC	-1.11
TACACAGACCCTCTTTTCTTTGTACCGTAT	2.32
CTCTCTTTCTTCCCCCACTCCAAGTTCCTT	4.22
TTGGGTCACAATCACAAATGCCTTCAGGGG	0.838
TCTGATGCCATGATAAGCAGTGTGGACTTT	6.58
CAGTAAAAGCTCTACCTGACCTCCCAAAAT	2.04
CACAGAACAAACAGTACATTCTGGAATGAT	-0.801
TCCGGAAACGTATGACTTTGGAGCACTCAT	-0.261
GCTGGTCAAAGGGCATTACTTGCTGGAGAA	3.16
TTACAACGCTGTTGTCTGTGACTGGGGTCA	3.66
GAATACTGCTGGGTCAGTTTATCTAAGATT	1.35
TCAAGGGAATCTGCTGTAATAAAGCCTTAT	-0.739
AAATAAGGATAAAGTAAGGTGAAGCCCAGC	-1.25
GACAGGGGAGATAAGGCCCGGCTGATGGGA	-1.2
TGTATTCCCTCTCTTCAGAATGGCCTGCCC	1.63
CATGTCTAAAGGCTGTGTCGGTATAAGTTC	1.86
CTTTGTAGCACTTTGGACCTCCACTTTGGA	3.1
CTGTACCAATTATTGCGAGTTTAGGAGGGT	0.928
CAGCAGGCCAGGCCAAATCAGAACTGAGTT	-1.18
CAAATGGAGAAGGTCTAAGTAAACTGTTCA	-0.663
TCTGGGCCTGGCAAGACTTCTTCAGGGAGA	-0.955
CTTGCTTAGGATAGGGTCAGTCTTTGTTCT	2.15
TCTGCCTTTTATCTATTTGTCGCCTCTGAC	0.141

Sequence	binding signal (log2 normalized intensity)
TTTCCTGCCCCTTCACATATTTTGAAAGAA	1.7
ACCTGGCCTGCGGGGTCAGGCCGTGGTGTA	1.79
TGCACTTTACTCAGAAAGGTCAGCGCTTTG	1.34
GAGTTCTAAGAGCCTACTGAGAGGAAAGGG	-1.21
AGCAAGTCAGATGGCCAAAGTCAACATTGA	0.756
GGTTCCCACAGCCCAACTCGGAGGACTGAG	-1.12
AGATGAGCCAGGCCAACACCAAGCAAGCTC	-1.13
CGTAAATGCACGGAAGCCTTCCCCGCCCGC	2.83
CAGGGACACATGCCCCTTCCCTCCCTGCAA	3.45
AAACCTACTTAGATCAAGATTTTCAACTTG	-1.14
GTGAAGTGGTAGGACAGGGCCCTTCACTAT	-0.979
TTCTTTGGTACTTTGAGCCAGTAAGTCTAG	1.28
CCACAAACAAACAGGGTGGCTTTGATCTGG	-0.725
TGAGCCGCCAGGCGGGTTCTGCCATCTCGC	-1.09
ATCTCCAAACGAGACTTTGGACTTTGGACT	11.8
TTGTGTCACCAATGGTAACTGAAAGTCATG	0.392
AGTGTCACAAACTATCAGTGAAGAGCAAAC	-0.946
ACCAGCCCACTCTTAGCAGAGATTCCTGCT	-1.2
CCATGACGCAAGCGAGTAAGGCCCGTGAGA	-1.2
TCCTTTGGTGCAAATACCATCCCCAGAGCC	1.9
GGCCTGGTTCGGGATTATGGCCGGCCCCTG	0.152
GGTGAAGCTTGGGCAGCACAGCCTCCCTGT	-0.982
TCACCTGGCTCTGAAAAACAAAATGCATTT	-0.853
CTCACCAGTGGGCCCAGAGCACAACCTTTG	0.906
CAAACTCATTTTGATCTTTGTGTACAAAGC	1.34

Sequence	binding signal (log2 normalized intensity)
ACACCTGCGTGTACTAAGGTCTTAAGTGTC	1.28
CAGTACAAATAAACCTTTGACCAATTGACC	3.49
AGATAAGAGCCACCCTCAAATCAGTGAAGG	-1.15
AGTTTGACCTGGAGCCAGGGCCTTTTCAAG	-0.917
ACTCATGGGCAAGATGGCTCTCCCGGGGCG	-0.935
CAAAGGATGGAAGCTCTGAAAGCTTCAAAG	-1.13
GCTGAGAGAGTCCTTGTTTGGTTAGTGCTG	0.966
AATGAGGCGACATCAAAGCATTTGGAGATT	-1.29
GTATCTTGTCTGACTGTGATACCAGGGGTC	3.23
TCATTGCACAGTTACTCCACAACTTGTTCT	0.726
TGCTTAAGTGGCTCACCCAAGTCACACAGT	-1.01
TAATATCTAAGATGTAGCTGCAAAGATAAG	-0.995
ATTGGCTGTTTAGTAGAGAGCAGGTACCAC	0.238
CAGCAGAGAGTTTTCCTTGGCTGTGCTGCC	-1.1
TATGCAAATGTTATGGCTGGTTTGGTCTTT	2.53
ACCGCCTACCTTTGGACTTCTCATTACATG	2.58
GCGCCAATACCTGCCGCGCGGGGCGCCTCC	-0.951
GGTTAGAATCCTTATCTGGTGTGCTTTCTG	1.49
TCCGAGATAAGGCGTCTTATCAGCCCCCAT	4.08
AGAAGCACGTGCAAAGTACAAAGTACAGAG	4.11
